Data set [1] is described as follows: Pharmacokinetics after single subcutaneous administration in non-human primate. It counts as in vivo, male Cynomolgus monkeys. The note with it: 0.3 mg/kg s.c. The method, then:
(§1) Plasma concentrations and pharmacokinetic parameters of GLP-1RA/FGF21 Fc fusion proteins were determined after single subcutaneous administration of 0.3 mg/kg in solution to female C57Bl/6 mice or male Cynomolgus monkeys using three different methods. Blood samples were obtained at time points from 30 minutes to 168 hours after dosing.
(§2) Plasma samples were analyzed for the intact FGF21 part of the fusion proteins with an ELISA kit (F1231-K01, Eagle Biosciences, USA). The assay utilized the two-site sandwich technique with two selected antibodies that bound to different epitopes of human intact FGF21. One of the antibodies specifically bound to the N-terminal amino acids (aa 29-35) of human FGF21, and the other antibody specifically bound to the C-terminus (aa 203-209) of human FGF21. Assay standards, controls and unknown samples were added directly to wells of microplate that was coated with an anti-human FGF21 (aa 29-35)-specific antibody. Simultaneously, a horseradish peroxidase conjugated anti-human FGF21 (aa 203-209)-specific antibody was added to each well. After the first incubation period, the antibody on the walls of the microtiter wells captured human FGF21 in the sample and unbound protein in each microtiter well was washed away. A “sandwich” of “anti-FGF21 antibody-human intact FGF21-HRP conjugated tracer antibody” was formed. […] For the detection of the immunocomplex, the well was then incubated with a substrate solution in a timed reaction and then measured in a spectrophotometric microplate reader. […]
(§3) The concentration of the full-length GLP-1RA/FGF21 Fc fusion proteins in plasma were determined utilizing an ELISA method. […] Following washing 3 times with 300 µL PBS-T 150 µL read buffer was added to the wells.
(§4) Plasma samples were analyzed for the intact GLP-1 part of the fusion proteins with a GLP-1 ELISA method. […] Following washing 3 times with 300 µL PBS-T, 150 µL read buffer was added to the wells.
(§5) The pharmacokinetic parameters were calculated by the program WinNonlin 6.4 using a non-compartmental model and linear trapezoidal interpolation calculation. […]

Data set [2] can be described thus: Conformational and thermal stability on UNit (intrinsic fluorescence BCM and static light scattering). It counts as physicochemical. The note with it: for Tagg: UNit SLS 266 nm, 5 mg/mL in phosphate buffer pH 7.4; for Tm: UNit, 5 mg/mL in phosphate buffer pH 7.4, 20 to 95° C. at 0.3° C./min. Here is the method: Conformational stability and propensity to aggregate was determined simultaneously for the GLP-1RA/FGF21 Fc fusion proteins using a UNit (Unchained Labs, CA, USA). The UNit combines the analysis of intrinsic fluorescence of a protein to detect unfolding of the protein and a Static Light Scattering (SLS) measurement in order to investigate the aggregation behavior.
Data were acquired for the fusion proteins at a concentration of 5 mg/mL formulated in phosphate buffer at pH 7.4. A volume of 9 µL of each sample were loaded into a UNi capillary holder and analyzed in triplicate on the UNit. The temperature was increased from 20 to 95° C. at a constant linear rate of 0.3° C./min. The BaryCentric Mean (BCM) indicating the intrinsic fluorescence and SLS signals detected with a 266 nm laser were plotted against the applied temperature in order to obtain melting temperatures (Tm) and aggregation onset temperatures (Tagg). Data were analyzed using the UNit Analysis software v.

A short description of data set [3]: Pharmacokinetics after single subcutaneous administration in mouse. Format: in vivo, female C57Bl/6 mice. The settings on record: 0.3 mg/kg s.c. The method, then:
as §1, §2, §3, §4, §5

B1: 2 (protein)
chain: HGEGTFTSDLSKQLEEERVQLFIEWLKATGPSSGAPPPSGGGGGGGSGGGGSGGGGSA[in this place human IgG1 Fc with changes]GGGSGSAHPIPDSSPLLQFGGQVRQRYLYTDDACQTEAHLEIREDGTVGGAADQSPESLLQLKALKPGVIQILGVKTSRFLCQRPDGALYGSLHFDPEACSFRELLLEDGYNVYQSEAHGLPLHLPGCKSPHRDPAPRGPARFLPLPGLPPAPPEPPGILAPQPPDVGSSDPLSMVYPSQGRSPSYAS
modifications: Fusion Protein
With B1, the t½ monkey is 42.5 h in data set [1] (assay FGF21 intact), 33.4 h in data set [1] (assay GLP-1 intact) and 23.5 h in data set [1] (assay full-length). Further, the Tagg in data set [2] was found to be 71.5 °C. For the same molecule, the midpoint of thermal melting (Tm) in data set [2] was 69.6 °C. The t½ mouse is 27.6 h in data set [3] (assay FGF21 intact), 27.8 h in data set [3] (assay GLP-1 intact) and 16.1 h in data set [3] (assay full-length).

B2: 6 (protein)
chain: HGEGTFTSDLSKQLEEERVQLFIEWLKATGPSSGAPPPSGGGGGGGSGGGGSGGGGSA[in this place human IgG4 Fc with changes]GGGSGSAHPIPDSSPLLQFGGQVRQRYLYTDDACQTEAHLEIREDGTVGGAADQSPESLLQLKALKPGVIQILGVKTSRFLCQRPDGALYGSLHFDPEACSFRELLLEDGYNVYQSEAHGLPLHLPGCKSPHRDPAPRGPARFLPLPGLPPAPPEPPGILAPQPPDVGSSDPLSMVYPSQGRSPSYAS
modifications: Fusion Protein
In the case of B2, in data set [2], the Tagg came out at 63.4 °C and the Tm was 64.1 °C.

B3: 1 (protein)
chain: HGEGTFTSDLSKQLEEERVQLFIEWLKATGPSSGAPPPSGGGGGGGSGGGGSGGGGSA[in this place human IgG1 Fc with changes]GGGSGSAHPIPDSSPLLQFGGQVRQRYLYTDDACQTEAHLEIREDGTVGGAADQSPESLLQLKALKPGVIQILGVKTSRFLCQRPDGALYGSLHFDPEACSFRELLLEDGYNVYQSEAHGLPLHLPGCKSPHRDPAPRGPARFLPLPGLPPAPPEPPGILAPQPPDVGSSDPLSMVGSQGRSPSYAS
modifications: Fusion Protein
In the case of B3, in data set [2], the Tagg worked out at 75.5 °C and the melting temperature (Tm) amounted to 70.5 °C.

B4: 4 (protein)
chain: HGEGTFTSDLSKQLEEERVQLFIEWLKATGPSSGAPPPSGGGGGGGSGGGGSGGGGSA[in this place human IgG4 Fc with changes]GGGSGSAHPIPDSSPLLQFGGQVRQRYLYTDDACQTEAHLEIREDGTVGGAADQSPESLLQLKALKPGVIQILGVKTSRFLCQRPDGALYGSLHFDPEACSFRELLLEDGYNVYQSEAHGLPLHLPGCKSPHRDPAPRGPARFLPLPGLPPAPPEPPGILAPQPPDVGSSDPLSMVGSQGRSPSYAS
modifications: Fusion Protein
B4: in data set [2], the Tagg turned out to be 64.0 °C and the Tm worked out at 64.9 °C.

The values are drawn from patent US20230265152A1, “GLP-1R AGONIST / FGF21 FUSION PROTEINS” (SANOFI, priority 2020, published 2023).
